Results from paper PMC9911399, “Two distinct binding modes provide the RNA-binding protein RbFox with extraordinary sequence specificity”.
Numbering of substitutions follows the chain as printed; changes in the protein carry UniProt numbers. This is one part of the list.

T1: RBFOX1 RRM RbFoxmut (Fox-RRM*) (Homo sapiens, UniProt Q9NWB1 109-208, R118D;E147R;N151S;E152T)
T1 sequence: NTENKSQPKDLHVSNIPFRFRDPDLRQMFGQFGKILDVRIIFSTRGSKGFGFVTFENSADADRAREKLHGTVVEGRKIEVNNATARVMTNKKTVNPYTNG

B1: CCUGUCG (DNA:RNA)
RNA: GGGAGACCGGAAUUCAGAUUGUCCCCUGUCGUUAAAUCCCGUCGUAGCCACCA
DNA 1: CAATCTGAATTCCGGTCTCCC
DNA 2: TGGTGGCTACGACGGGATT
B2: AUUAUAU (DNA:RNA)
RNA: B1 RNA with C25A, C26U, G28A, C30A, G31U
DNA 1: CAATCTGAATTCCGGTCTCCC
DNA 2: TGGTGGCTACGACGGGATT
B3: AGAGAAA (DNA:RNA)
RNA: B1 RNA with C25A, C26G, U27A, U29A, C30A, G31A
DNA 1: CAATCTGAATTCCGGTCTCCC
DNA 2: TGGTGGCTACGACGGGATT
B4: CGUGGCU (DNA:RNA)
RNA: B1 RNA with C26G, U29G, G31U
DNA 1: CAATCTGAATTCCGGTCTCCC
DNA 2: TGGTGGCTACGACGGGATT
B5: UUUUAUU (DNA:RNA)
RNA: B1 RNA with C25U, C26U, G28U, U29A, C30U, G31U
DNA 1: CAATCTGAATTCCGGTCTCCC
DNA 2: TGGTGGCTACGACGGGATT
B6: CACGCAU (DNA:RNA)
RNA: B1 RNA with C26A, U27C, U29C, C30A, G31U
DNA 1: CAATCTGAATTCCGGTCTCCC
DNA 2: TGGTGGCTACGACGGGATT
B7: UACUGCC (DNA:RNA)
RNA: B1 RNA with C25U, C26A, U27C, G28U, U29G, G31C
DNA 1: CAATCTGAATTCCGGTCTCCC
DNA 2: TGGTGGCTACGACGGGATT
B8: GUCAGAU (DNA:RNA)
RNA: GGGAGACCGGAAUUCAGAUUGUCCGUCAGAUUUAAAUCCCGUCGUAGCCACCA
DNA 1: CAATCTGAATTCCGGTCTCCC
DNA 2: TGGTGGCTACGACGGGATT
B9: ACCUGAA (DNA:RNA)
RNA: B8 RNA with G25A, U26C, A28U, U31A
DNA 1: CAATCTGAATTCCGGTCTCCC
DNA 2: TGGTGGCTACGACGGGATT
B10: ACCCGAU (DNA:RNA)
RNA: B8 RNA with G25A, U26C, A28C
DNA 1: CAATCTGAATTCCGGTCTCCC
DNA 2: TGGTGGCTACGACGGGATT
B11: UCCGCUC (DNA:RNA)
RNA: B1 RNA with C25U, U27C, U29C, C30U, G31C
DNA 1: CAATCTGAATTCCGGTCTCCC
DNA 2: TGGTGGCTACGACGGGATT
B12: AUAGGCG (DNA:RNA)
RNA: B1 RNA with C25A, C26U, U27A, U29G
DNA 1: CAATCTGAATTCCGGTCTCCC
DNA 2: TGGTGGCTACGACGGGATT
B13: CCCGAGG (DNA:RNA)
RNA: B1 RNA with U27C, U29A, C30G
DNA 1: CAATCTGAATTCCGGTCTCCC
DNA 2: TGGTGGCTACGACGGGATT
B14: GCUAAGA (DNA:RNA)
RNA: B1 RNA with C25G, G28A, U29A, C30G, G31A
DNA 1: CAATCTGAATTCCGGTCTCCC
DNA 2: TGGTGGCTACGACGGGATT
B15: CGAUUCA (DNA:RNA)
RNA: B1 RNA with C26G, U27A, G28U, G31A
DNA 1: CAATCTGAATTCCGGTCTCCC
DNA 2: TGGTGGCTACGACGGGATT
B16: CUAAAGG (DNA:RNA)
RNA: B1 RNA with C26U, U27A, G28A, U29A, C30G
DNA 1: CAATCTGAATTCCGGTCTCCC
DNA 2: TGGTGGCTACGACGGGATT
B17: UAUUUCA (DNA:RNA)
RNA: B1 RNA with C25U, C26A, G28U, G31A
DNA 1: CAATCTGAATTCCGGTCTCCC
DNA 2: TGGTGGCTACGACGGGATT
B18: AUAGUAC (DNA:RNA)
RNA: B1 RNA with C25A, C26U, U27A, C30A, G31C
DNA 1: CAATCTGAATTCCGGTCTCCC
DNA 2: TGGTGGCTACGACGGGATT
B19: ACUUCUG (DNA:RNA)
RNA: B1 RNA with C25A, G28U, U29C, C30U
DNA 1: CAATCTGAATTCCGGTCTCCC
DNA 2: TGGTGGCTACGACGGGATT
B20: GUGAGAC (DNA:RNA)
RNA: B8 RNA with C27G, U31C
DNA 1: CAATCTGAATTCCGGTCTCCC
DNA 2: TGGTGGCTACGACGGGATT

Each binder was assayed against T1, RBFOX1 RRM RbFoxmut (Fox-RRM*) (assay: EMSA; HiTS-Eq, 1 nM pool, 10 min; buffer printed only for the single-RNA assays: 10 mM Tris pH 7.5, 150 mM NaCl, 3.4 mM EDTA, 0.001% NP-40, 30 C). Settings: tags: His6 N-terminal (pET28a); label: 5' 32P.
Outline: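 Purified RbFox RRM, wild type or mutant, was incubated for 10 min in 50 µL with 1 nM of a 5′-radiolabelled RNA pool carrying 7 randomized nucleotides, whose flanks were annealed to DNA oligonucleotides, over a series of increasing protein concentrations. Unbound RNA was resolved on 8% native PAGE, cut out, reverse-transcribed, barcoded by PCR and sequenced on an Illumina HiSeq 2500. Relative association constants were derived from changes in read counts for each RNA species versus the control reaction and normalised to the cognate motif.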

Row | Binder | binding signal
1 | B1 | 0.107 KA relative to UGCAUGU
2 | B2 | 0.137 KA relative to UGCAUGU
3 | B3 | 0.0972 KA relative to UGCAUGU
4 | B4 | 0.111 KA relative to UGCAUGU
5 | B5 | 0.113 KA relative to UGCAUGU
6 | B6 | 0.147 KA relative to UGCAUGU
7 | B7 | 0.217 KA relative to UGCAUGU
8 | B8 | 0.0887 KA relative to UGCAUGU
9 | B9 | 0.0825 KA relative to UGCAUGU
10 | B10 | 0.106 KA relative to UGCAUGU
11 | B11 | 0.0521 KA relative to UGCAUGU
12 | B12 | 0.122 KA relative to UGCAUGU
13 | B13 | 0.0701 KA relative to UGCAUGU
14 | B14 | 0.12 KA relative to UGCAUGU
15 | B15 | 0.102 KA relative to UGCAUGU
16 | B16 | 0.0795 KA relative to UGCAUGU
17 | B17 | 0.117 KA relative to UGCAUGU
18 | B18 | 0.131 KA relative to UGCAUGU
19 | B19 | 0.0582 KA relative to UGCAUGU
20 | B20 | 0.08 KA relative to UGCAUGU
